Assay results: patent US20230058961A1, “SUBSTITUTED HETEROCYCLICS WITH THERAPEUTIC ACTIVITY IN HIV” (New York Blood Center, Inc., priority 2019, published 2023)

What was measured:
[1] = test system: recombinant CD4-dependent pseudovirus HIV-1ADA in CD4-negative Cf2Th-CCR5 cells; assay: Infectivity of CD4-negative Cf2Th-CCR5 cells by CD4-dependent HIV-1ADA (entry agonist test); details: HIV-1ADA pre-treated with escalating concentrations, 48 h, FIG. 1
Procedure: FIG. 1 depicts the infectivity of CD4 negative Cf2Th-CCR5 cells by HIV-1NL4-3/ADA (CD4-dependent virus) in the presence of indicated control and subject compounds.
Compound C is known to be an entry agonist promoting CCR5 binding and enhancing HIV-1 entry into CD4-negative cells expressing CCR5 (Curreli, F. et al., Antimicrob Agents Chemother 58:5478-5491, 2014; Schon, A. et al., Biochemistry 45:10973-10980, 2006). […] Compound C was used as a control.
(§1) CD4-negative Cf2Th-CCR5 cells were plated at 6×10^3 cells/well in a 96-well tissue culture plate and incubated overnight. […] The luciferase activity was immediately measured to obtain the relative infection compared to the untreated control. The Relative virus infectivity indicates the amount of infection detected in the presence of the compounds divided by the amount of infection detected in the absence of the compounds.
as §1, with “Briefly, the” for “CD4-negative”, “plate.” for “plate and incubated overnight.”, “concerning” for “compared to”

[2] = test system: recombinant CD4-dependent pseudovirus HIV-1ADA in CD4-negative Cf2Th-CCR5 cells; details: known from the literature; cited from earlier work

CC1(C)CC(NC(=O)C(=O)Nc2ccc(Cl)cc2)CC(C)(C)N1 [Compound C]
HIV-1 infectivity in CD4-negative Cf2Th-CCR5 cells (relative virus infectivity) [1]: enhanced the infection | HIV-1 entry agonist property [2]: entry agonist
